Reference: paper PMC5227004, “Native ESI Mass Spectrometry Can Help to Avoid Wrong Interpretations from Isothermal Titration Calorimetry in Difficult Situations” (Journal of the American Society for Mass Spectrometry, 2016)

Biological target: DNA-polymerase processivity factor (β-ring) from Escherichia coli (Escherichia coli, UniProt P0A988)
Experiment: Native ESI-MS titration of peptide binding to the E. coli β-ring
Settings: βE.coli; cone voltage 100 V; fraction r3 merged with r2

Chain of UniProt P0A988 (P0A988 whole entry, looked up): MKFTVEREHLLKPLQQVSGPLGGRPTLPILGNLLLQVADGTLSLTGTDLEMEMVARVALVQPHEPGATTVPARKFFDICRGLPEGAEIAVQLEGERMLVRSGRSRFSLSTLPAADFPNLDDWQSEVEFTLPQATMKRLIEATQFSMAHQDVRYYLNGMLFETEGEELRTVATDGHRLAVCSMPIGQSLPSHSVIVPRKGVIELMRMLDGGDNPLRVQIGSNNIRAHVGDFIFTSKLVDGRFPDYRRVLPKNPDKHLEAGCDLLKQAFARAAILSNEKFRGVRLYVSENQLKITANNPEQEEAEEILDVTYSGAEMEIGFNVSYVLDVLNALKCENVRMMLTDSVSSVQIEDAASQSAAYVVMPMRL

## CC(=O)N[C@@H](CCC(N)=O)C(=O)N[C@@H](CC(C)C)C(=O)N[C@@H](CC(=O)O)C(=O)N[C@@H](CC(C)C)C(=O)N[C@@H](Cc1ccccc1)C(=O)O [P6]
  P, probability of peptide loss due to gas-phase dissociation (GPD): 0.056
